Results from publication PMC4336329 (PLoS ONE, 2015).
Screen size: about 310,000 compounds; about 2,200 (0.71%) showed an effect of 50% or more. The effect is printed as a negative number. The list shows a part of the results.

molecular target: human ether-à-go-go-related gene (hERG) potassium channel (human, UniProt Q12809); assay: primary screen, population patch clamp on CHO cells stably expressing hERG
Sequence (Q12809 whole entry, looked up): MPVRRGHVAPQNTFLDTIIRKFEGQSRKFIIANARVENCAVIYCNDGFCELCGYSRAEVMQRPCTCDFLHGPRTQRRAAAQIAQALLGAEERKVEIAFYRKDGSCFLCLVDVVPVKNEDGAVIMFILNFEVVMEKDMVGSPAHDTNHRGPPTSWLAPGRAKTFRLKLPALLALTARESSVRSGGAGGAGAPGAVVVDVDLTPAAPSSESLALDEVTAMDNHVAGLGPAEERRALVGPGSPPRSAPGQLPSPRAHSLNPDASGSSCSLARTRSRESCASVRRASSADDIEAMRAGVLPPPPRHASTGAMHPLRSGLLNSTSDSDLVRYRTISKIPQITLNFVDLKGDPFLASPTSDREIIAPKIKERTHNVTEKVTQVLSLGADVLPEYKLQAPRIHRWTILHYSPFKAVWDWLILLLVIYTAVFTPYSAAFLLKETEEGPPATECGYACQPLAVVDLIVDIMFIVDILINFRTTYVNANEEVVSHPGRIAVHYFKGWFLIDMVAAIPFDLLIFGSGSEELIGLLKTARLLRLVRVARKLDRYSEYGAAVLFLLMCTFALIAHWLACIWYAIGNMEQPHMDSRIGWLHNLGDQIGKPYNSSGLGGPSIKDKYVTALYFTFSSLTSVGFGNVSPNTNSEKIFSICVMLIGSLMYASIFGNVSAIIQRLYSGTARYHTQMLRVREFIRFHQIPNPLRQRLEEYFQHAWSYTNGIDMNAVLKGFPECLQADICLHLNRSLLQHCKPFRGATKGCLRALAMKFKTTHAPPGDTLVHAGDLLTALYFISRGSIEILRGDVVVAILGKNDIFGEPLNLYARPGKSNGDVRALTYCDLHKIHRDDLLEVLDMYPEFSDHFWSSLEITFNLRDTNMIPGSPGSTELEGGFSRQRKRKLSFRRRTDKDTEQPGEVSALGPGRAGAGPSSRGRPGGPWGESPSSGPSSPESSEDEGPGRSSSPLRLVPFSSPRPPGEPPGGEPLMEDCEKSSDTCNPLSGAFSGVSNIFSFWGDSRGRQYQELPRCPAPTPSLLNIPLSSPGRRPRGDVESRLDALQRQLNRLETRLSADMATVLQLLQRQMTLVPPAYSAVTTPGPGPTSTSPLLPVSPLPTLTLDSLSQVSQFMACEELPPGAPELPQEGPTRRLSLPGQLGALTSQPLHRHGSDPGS

SMILES	hERG current change (%, negative = inhibition) at 1uM [%]
O=[N+]([O-])c1cccc(S(=O)(=O)NCCOc2cccc3cccnc23)c1	10.9
O=C(NC(Cc1c[nH]c2ccccc12)C(=O)O)/C(=C/c1ccc(F)cc1)NC(=O)c1ccccc1 (centres unmarked)	3.84
O=C(c1ccc(-c2cc(Cl)ccc2Cl)o1)N1CCOCC1	3.23
Cc1ccc(C(=O)N/C(=C/c2ccc(-c3cccc([N+](=O)[O-])c3)o2)C(=O)NC(C)(C)C)cc1	-0.682
CCOc1cnn(Cc2ccccc2)c(=O)c1SCc1ccccc1	-4.38
Cc1ccc(-c2nnn(CC(=O)N(c3ccccc3)C(C(=O)NC3CCCC3)c3ccncc3)n2)o1 (centres unmarked)	12.9
Nc1nc(Cl)nc2c1ncn2C1CC(O)C(CO)O1 (centres unmarked)	16.9
CC1CCN(C(=O)C2CCC(CNS(=O)(=O)c3cccc4cccnc34)CC2)CC1 (centres unmarked)	11
COc1ccc(S(=O)(=O)N2CCC(C(=O)N[C@H](C(=O)N3CCCC3)C(C)C)CC2)cc1	12.5
COc1cc(C(C(=O)Nc2c(C)cccc2C)N(C)C(=O)c2ccc(-n3cnnn3)cc2)ccc1O (centres unmarked)	-20.6
N#CC1(c2ccccc2)CCN(S(=O)(=O)c2ccc(OC(F)(F)F)cc2)CC1	11.6
Nc1nc(SCC(=O)NCCc2ccccc2)[nH]c(=O)c1-c1ccccc1	13.7
Cc1ccc(Oc2ncnc(N)c2[N+](=O)[O-])cc1C	17.6
Cc1c(Cl)cccc1NC(=O)c1cccc(OC(F)F)c1	-3.05
O=C(NCCN1CCOCC1)c1ccc(Cl)c(S(=O)(=O)N2CCCC2)c1	8.01
OCC1(CCOc2ccccc2)CCN(CCCn2cccn2)CC1	-43.3
O=C(c1ccc2c(c1)OCCO2)C1CCN(C(=O)c2ccc(F)cc2)CC1	4.28
CC1CN(C)C(C)c2c1oc1ccc([N+](=O)[O-])cc21 (centres unmarked)	2.24
COc1cc(OC)c(OC)cc1/C=C1\Oc2cc(OS(C)(=O)=O)ccc2C1=O	0.261

SMILES	hERG current change (%, negative = inhibition) at 1uM [%]
CCOc1cc(/C=N/NC(=O)c2nn(C)cc2Br)ccc1OCc1ccccc1Cl	-1.64
CCCCN1C(N)=NC[C@@H]1CC1CCCCC1	8.96
O=C1/C(=C/c2ccco2)SC(=S)N1C1CCS(=O)(=O)C1 (centres unmarked)	10.4
O=C(O)CSc1nnc(COc2cccc3ccccc23)o1	16
COc1ccc(CCNS(=O)(=O)c2cnc(Cl)c(Br)c2)cc1OC	17.3
CC(=O)NCCCC(=O)NN1C(=S)N(Cc2ccccc2)C(=O)C1CC(=O)Nc1cccc(C)c1 (centres unmarked)	7.75
Cc1c(C#N)c(N)nc2c3c(sc12)NC(=O)CC3c1ccc(F)cc1 (centres unmarked)	12.7
COc1cc2c(cc1OC)C(c1cccc(Cl)c1)CC(=O)N2 (centres unmarked)	8.13
CC(C)CCNC(=O)CN1C(=O)NC(c2ccccc2)(c2ccccc2)C1=O	9.25
Cc1ccc(-c2nc(S(=O)(=O)c3ccc(C)cc3)c(N3CCOCC3)o2)cc1	1.18
CCOc1ncccc1C(=O)NCc1ccccc1Cl	6.85
Cc1cc(=O)n2nc(N3CCC(C(=O)NCc4cccc(Cl)c4)CC3)sc2n1	6.73
CC(=O)N1c2ccccc2C(=O)C1N1CCCCC1 (centres unmarked)	-5.64
O=C(CCNc1ccccc1)c1ccc2c(c1)OCO2	2.23
O=C(O)/C=C/C(=O)Nc1ccc(-n2ccc(C(F)(F)F)n2)cc1	7.99
CCCCOc1ccc(C(=O)N2CCNC(=O)C2)cc1	11
CCOC(=O)C1CCN(C(=O)c2cc3c(=O)n4ccccc4nc3s2)CC1	9.28
N#C/C(=C/c1ccc(Sc2nc3ccccc3[nH]2)o1)c1cccc(F)c1	-2.54
CCCCCCOc1ccc(/C(N)=N/O)cc1	-0.178

SMILES	hERG current change (%, negative = inhibition) at 1uM [%]
CCCCC1=CC2=C(c3ccco3)C(=O)C(C)(OC(=O)c3ccc(OC)cc3)C(=O)C2=CN1Cc1ccc2c(c1)OCO2 (centres unmarked)	4.17
COc1ccc(C)cc1NC(=O)CNC(=O)Cn1ccc2ccccc2c1=O	3.68
COc1ccccc1N1CCN(C(=O)C2CCN(S(=O)(=O)c3ccc(C)cc3)CC2)CC1	9.73
CNC(=O)c1c(NC(=O)c2ccco2)sc2c1CCCC2	10
Cc1ccc(C)c(C(=O)CN2Cc3ccccc3C2=O)c1	9.3
O=C(CSc1nnc(CNc2ccc(F)cc2)n1Cc1ccco1)N1CCCC1	-15.6
O=C(NCc1cccnc1)NC1CCCCC1	8.24
Cc1cc(C)cc(NC(=S)NN)c1	5.97
COc1ccc(S(=O)(=O)N2CCCCC2)cc1NC(=O)CCOc1cc(C)ccc1C	12.6
Cc1cc[n+](-c2ccccc2)c2ccccc12.[Cl-]	39.6
O=C(O)c1ccc(CNC(=O)c2ccc(S(=O)(=O)N3CCCCC3)cc2)cc1	3.78
CCOc1ccc(S(=O)(=O)N2CCN(C(=O)c3ccncc3)CC2)cc1	3.79
O=C(CCl)NNc1cccc(Cl)n1	9.61
O=C(CCCc1nc(-c2ccc(Cl)cc2)no1)NC1CCCC1	15
COC(=O)CS(=O)(=O)c1nnc([C@H](Cc2ccccc2)NC(=O)OC(C)(C)C)o1	8.99
COc1ccc(C2CC(c3ccc(OC)cc3)n3nc(NS(C)(=O)=O)nc3N2)cc1 (centres unmarked)	2.45
Cc1ccc(CCNc2ccccc2)c[n+]1[O-]	3.25
Cc1cc(C(=O)N2CCN(c3ccc(F)cc3)CC2)on1	4.48
